# The whole screen tested about 310,000 compounds, of which about 14,000 (4.5%) showed an effect of 50% or more. The effect is printed as a negative number. The list shows a part of the results.
# Target: human ether-à-go-go-related gene (hERG) potassium channel (human, UniProt Q12809)
# Test: primary screen, population patch clamp on CHO cells stably expressing hERG
# 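Further: peak tail current of the secondary pulse compared with the same well before compound.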
# Sequence of human ether-à-go-go-related gene (hERG) potassium channel (Q12809 whole entry, looked up): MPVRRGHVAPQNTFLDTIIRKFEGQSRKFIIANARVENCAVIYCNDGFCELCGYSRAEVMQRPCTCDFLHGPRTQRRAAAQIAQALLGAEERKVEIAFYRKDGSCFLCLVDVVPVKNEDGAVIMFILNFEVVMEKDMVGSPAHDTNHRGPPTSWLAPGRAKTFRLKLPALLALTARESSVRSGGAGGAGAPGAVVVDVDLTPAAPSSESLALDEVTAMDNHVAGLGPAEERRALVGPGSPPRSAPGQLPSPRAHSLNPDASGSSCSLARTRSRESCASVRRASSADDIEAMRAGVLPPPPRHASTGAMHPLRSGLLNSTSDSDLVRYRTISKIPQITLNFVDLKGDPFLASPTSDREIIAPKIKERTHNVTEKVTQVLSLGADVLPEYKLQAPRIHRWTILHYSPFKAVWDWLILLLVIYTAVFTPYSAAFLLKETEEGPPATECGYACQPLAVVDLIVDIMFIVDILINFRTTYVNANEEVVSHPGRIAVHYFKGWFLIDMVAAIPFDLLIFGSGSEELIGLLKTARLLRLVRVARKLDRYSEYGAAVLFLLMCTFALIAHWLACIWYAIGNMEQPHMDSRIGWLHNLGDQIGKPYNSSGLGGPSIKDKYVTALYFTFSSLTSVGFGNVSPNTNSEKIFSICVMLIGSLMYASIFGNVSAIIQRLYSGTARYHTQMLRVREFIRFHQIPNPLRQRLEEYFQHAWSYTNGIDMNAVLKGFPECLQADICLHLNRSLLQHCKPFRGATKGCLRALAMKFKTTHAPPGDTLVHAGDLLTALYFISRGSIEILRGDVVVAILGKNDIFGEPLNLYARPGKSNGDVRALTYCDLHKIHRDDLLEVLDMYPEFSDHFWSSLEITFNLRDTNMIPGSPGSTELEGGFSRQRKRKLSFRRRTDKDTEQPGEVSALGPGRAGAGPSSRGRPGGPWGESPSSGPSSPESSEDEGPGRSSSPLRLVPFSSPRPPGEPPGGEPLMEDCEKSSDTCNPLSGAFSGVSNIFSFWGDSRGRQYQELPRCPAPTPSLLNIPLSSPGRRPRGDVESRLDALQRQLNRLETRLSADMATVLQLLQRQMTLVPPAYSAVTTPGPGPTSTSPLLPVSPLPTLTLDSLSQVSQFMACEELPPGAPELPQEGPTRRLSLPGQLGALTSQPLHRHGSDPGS
row,SMILES,"hERG current change (%, negative = inhibition) at 10uM [%]"
1,CC(C)(O)[C@H]1Cc2cc3ccc(=O)oc3cc2O1,21.2
2,CCOc1ccc(OCCCC(=O)N(CC)CC(=O)Nc2c(F)cccc2F)cc1,-5.99
3,COc1ccc2[nH]cc(CCNS(=O)(=O)Cc3ccccc3)c2c1,12.2
4,CCN(C(=O)CN1C(=O)NC(c2ccccc2)(c2ccc(C)c(C)c2)C1=O)C1CCS(=O)(=O)C1 (stereo not shown),-53.4
5,COc1cc(OC)c(OC)cc1CN1CCN(Cc2cccc(F)c2)CC1.O=C(O)C(=O)O,10.2
6,CCOc1ccc(S(=O)(=O)NCCC(=O)NC2CCCCC2)cc1,-8.11
7,O=C(NCCC1=CCCCC1)C1CCN(S(=O)(=O)N2CCCC2)CC1,5.75
8,COc1ccc(CN(CCN(C)C)c2ccccn2)cc1.O=C(O)/C=C\C(=O)O,-38.5
9,CC(C)(C)c1ccc(S(=O)(=O)N2CCN(CC(O)COCC3CCCO3)CC2)cc1 (stereo not shown),-37.3
10,CC(=O)c1ccc(NC(=O)C(C)N2CCN(C/C=C/c3ccccc3)CC2)cc1 (stereo not shown),-71.4
11,CC(=O)Nc1ccc(S(=O)(=O)NCCSCc2ccco2)cc1,-7.67
12,COc1ccccc1NC(=O)COc1ccccc1,10.9
13,CN(C)C1=NCCN1CCCCc1ccccc1,-37.4
14,CCOn1c(=O)c[n+]([O-])c2ccccc21,29
15,COc1ccccc1N1CCN(C(=O)/C=C/c2c(Cl)nc3ccccn23)CC1,-4.08
16,CC1(C)Cc2c(cnn2-c2cccc(F)c2)C(NC(=O)CSc2ccncc2)C1 (stereo not shown),-56.5
17,CCOC(=O)C1(CCSC)NC(c2ccco2)C2C(=O)N(C)C(=O)C21 (stereo not shown),11
18,COc1ccc2cc(-c3[nH]ncc3CN3C[C@@H]4CCC[C@H]3C4)ccc2c1,-58.7
19,O=C(N/N=C/c1cn[nH]c1-c1ccc(F)cc1)c1ccncc1,6.55
20,N#CCCCSc1nnc(-c2ccc(Cl)cc2)n1-c1ccccc1,-10
21,CCOC(=O)Cc1cc(=O)[nH]c(/N=C(\N)Nc2ccc(OC)cc2)n1,5.04
22,CCn1c(CSc2nc3ccccc3s2)n[nH]c1=S,15.8

row,SMILES,"hERG current change (%, negative = inhibition) at 10uM [%]"
1,CCN(CC(=O)Nc1ccc(NC(C)=O)cc1)C(=O)c1ccccc1SCC(=O)N1CCCC1,4.37
2,CCC(C)c1c(O)nc(SCC(=O)N2CCOCC2)[nH]c1=O (stereo not shown),-1.36
3,Cc1ccc2oc(-c3cccc(N)c3)nc2c1,18.6
4,Cc1ccc(C(=O)NCc2ccc3c(c2)OCO3)cc1C,7.22
5,COC(=O)CN1C(=O)N/C(=C/c2cc(OC)c(OC)cc2C)C1=O,3.41
6,Cc1ccc(C(=O)Nc2sc3c(c2C#N)CCCCC3)cc1C,1.01
7,Cc1nonc1NC(=O)CSc1nc2ccc(Cl)cc2[nH]1,3.09
8,COc1cccc(NC(=O)C(OC(=O)c2cnc(C)cn2)c2ccccc2)c1 (stereo not shown),5.89
9,CC(=O)[C@@H]1[C@@H](C(=O)c2ccc(C)cc2)[C@]2(C(=O)Nc3ccccc32)[C@H]2C=Cc3cc(F)ccc3N12,2.02
10,Cc1cc(O)c2c(c1)C(=O)c1cc(O)cc(O)c1C2=O,8.63
11,COc1ccc(NS(=O)(=O)c2cccc(C(=O)N/N=C/c3cccs3)c2)cc1,-7.85
12,O=[N+]([O-])c1cccc(C(=S)N2CCN(c3ccccc3F)CC2)c1,-15
13,CCNC(=O)C(=O)NCCc1ccc(Cl)cc1,10.7
14,CCOc1ccc(N(C)S(=O)(=O)c2ccc(-c3cc(C)no3)s2)cc1,13.9
15,COc1ccc(C(=O)Nc2cc(C)nn2-c2ccc(C)cc2)cc1,20.5
16,Cc1ccc(/C=C2\C(=O)NC(=S)N(c3ccc(F)cc3)C2=O)s1,14.5
17,COc1ccccc1C(=O)Nc1c(-c2ccccc2)nc2ccccn12,-13.3
18,CCOC(=O)Cc1nnc(NC(=O)c2ncn[nH]2)s1,-9.4
19,Nc1ccc(CCN2CCN(c3cccc(C(F)(F)F)c3)CC2)cc1,-67.2
20,CCN(CC)S(=O)(=O)c1ccc(N2CCOCC2)c(NC(=O)c2ccc3c(c2)OCCO3)c1,-29.4
21,COc1ccc(CN(C(=S)Nc2ccccc2)C2CC(=O)N(c3ccccc3)C2=O)cc1 (stereo not shown),4.07
22,COC(=O)C1=C(c2ccc(OC)c(OC)c2)C[C@@H]2CC[C@H]1N2C(=O)NCc1ccco1,9.89

row,SMILES,"hERG current change (%, negative = inhibition) at 10uM [%]"
1,Cc1ccccc1NC(=O)CC1SC(=Nc2ccc(O)cc2)NC1=O (stereo not shown),10.8
2,O=C(O)CC/C(=C\c1ccc(Cl)c([N+](=O)[O-])c1)c1nc2ccccc2s1,5.17
3,COC(=O)C1=C(c2c(C)noc2C)C[C@@H]2CC[C@H]1N2C(=O)N1CCCC1,13.5
4,CC(C)CCN(CC(=O)NC1CCCC1)C(=O)C(=O)Nc1ccc2c(c1)OCCO2,11
5,COc1ccccc1C1C2=C(N=C3SCC(=O)N31)c1ccccc1CC2 (stereo not shown),9.78
6,CCS(=O)(=O)N1CCN(c2ccnc3cc(Cl)ccc23)CC1,-73.2
7,O=C(CNS(=O)(=O)c1ccccc1)NCC(=O)OCc1ccc(Br)cc1,-6.92
8,Cc1nn(CC#N)c(=O)n1-c1ccc(Cl)cc1,9.4
9,CC(C)CCNC(=O)C1CCN(c2nc3ccccc3o2)CC1,-7.06
10,COc1ccc(N(Cc2cc3ccc(C)cc3[nH]c2=O)S(=O)(=O)c2ccccc2)cc1,12
11,C#CCNC(=O)C1=C[C@@H](c2ccccc2)C[C@@H](OCCCCO)O1,-13.4
12,Cc1ccc(CN2CCN(Cc3ccc4cccc(F)c4n3)CC2CCO)cc1 (stereo not shown),-68.6
13,CC(=O)Nc1cccc(Nc2nc(-c3ccccc3F)nc3ccccc23)c1,11.5
14,CCCCOc1cccc(C(=O)Nc2ccc(S(=O)(=O)Nc3nnc(CC)s3)cc2)c1,-7.54
15,CN(C)c1ccc(/C=N/NC(=O)c2ccc3c(c2)OCO3)cc1,6.07
16,O=C(Nc1ccc(-c2nc3cccnc3s2)cc1)c1ccco1,13.1
17,O=C(CC1Sc2ccccc2NC1=O)Nc1ccccc1[N+](=O)[O-] (stereo not shown),-4.23
18,COc1ccc(OC)c(Nc2cc(C)nc3nc(C)nn23)c1,0.139
19,O=C(CCC(=O)N(CC(=O)NC1CCCCC1)c1ccc2c(c1)OCCO2)Nc1ccccn1,9.02
20,CCCN(CCC)C(=O)CC(c1ccccc1)c1cc(C)ccc1O (stereo not shown),-20.3
21,CC(C)c1ccc(NC(=O)CSc2nc(=O)n(CCCN3CCOCC3)c3c2CCC3)cc1,-51.3
22,O=C(NNC(=S)NCc1ccc(Cl)cc1)c1ccc2c(c1)OCO2,6.73

row,SMILES,"hERG current change (%, negative = inhibition) at 10uM [%]"
1,CCOC(=O)CSc1ccc2nnc(-c3ccncc3)n2n1,-31.4
2,CCCS(=O)(=O)c1c(S(=O)(=O)CCC)c2cnccn2c1C(=O)c1ccc(Cl)cc1,-31.7
3,O=C(O)c1ccccc1.OC(CNCC1CCCO1)Cn1c2ccccc2c2ccccc21 (stereo not shown),-27.4
4,CCc1cccc(C)c1NC(=S)NCc1ccc2c(c1)cc(C)n2C,1.32
5,CC(=O)N1C(=O)C2(C(C#N)=C(N)Oc3c2c(C)nn3-c2ccccc2)c2ccccc21 (stereo not shown),0.479
6,Cc1cc(C)c(NC(=O)CCCN2CCCC2)c(C)c1,27.1
7,COc1ccccc1CNS(=O)(=O)c1ccc2c(c1)CC(C)N2C(=O)C1CCC1 (stereo not shown),-10.1
8,CC(C)(C)NC(=O)COC(=O)c1ccc(O)cc1,4.51
9,CCOc1nc(Nc2ccc(OC)c(Cl)c2)nc(OCC)n1,-8.68
10,COc1ccc(Nc2nc(N3CCN(C)CC3)nc3ccccc23)c(OC)c1,-75.4
11,COc1ccc(C(=O)C(OC(=O)c2ccccc2Cl)c2ccccc2)cc1 (stereo not shown),-0.748
12,COc1ccccc1/C=c1\sc2nc(-c3ccccc3OC)nn2c1=O,3.75
13,O=C1OC2(CCCCC2)OC(=O)C1=CNc1nc2ccccc2s1,9.83
14,CN(C)S(=O)(=O)c1ccc(C(=O)NCC(C)(C)N2CCOCC2)cc1,12.6
15,COC(=O)c1ccc(CN2C(=O)C3CCCCC3C2=O)o1 (stereo not shown),5.81
16,CSc1nnc2c(n1)OC(C)=Nc1ccccc1-2,-6.12
17,CC(C)(C)c1ccc(OCC(O)CN2CCCC2)cc1.Cl (stereo not shown),-35.7
18,COCc1cc(C)nc(NC2CC(C)(C)NC(C)(C)C2)c1C#N,12.7
19,CCOP(=O)(OCC)c1nc(-c2cccc([N+](=O)[O-])c2)oc1N1CCCCC1,-13.4
20,Brc1cccc(-c2nnc3sc(CN4CCC5(CC4)OCCO5)cn23)c1,-15.3
21,CC(=O)Nc1sc(-c2ccccc2)nc1-c1ccccc1,14
22,Cc1ccc(-n2cccn2)c(CN2CCCC(C(=O)c3ccc4c(c3)OCO4)C2)c1 (stereo not shown),-77.2

# Source: article PMC4336329 (PLoS ONE, 2015)
